In all, about 310,000 compounds went through this assay and about 14,000 (4.5%) showed an effect of 50% or more. Effects have a minus sign here. This is one part of the list.
Molecular target: human ether-à-go-go-related gene (hERG) potassium channel (human, UniProt Q12809)
Test: primary screen, population patch clamp on CHO cells stably expressing hERG
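Further: peak tail current of the secondary pulse compared with the same well before compound.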

Chain of human ether-à-go-go-related gene (hERG) potassium channel (Q12809 whole entry, looked up): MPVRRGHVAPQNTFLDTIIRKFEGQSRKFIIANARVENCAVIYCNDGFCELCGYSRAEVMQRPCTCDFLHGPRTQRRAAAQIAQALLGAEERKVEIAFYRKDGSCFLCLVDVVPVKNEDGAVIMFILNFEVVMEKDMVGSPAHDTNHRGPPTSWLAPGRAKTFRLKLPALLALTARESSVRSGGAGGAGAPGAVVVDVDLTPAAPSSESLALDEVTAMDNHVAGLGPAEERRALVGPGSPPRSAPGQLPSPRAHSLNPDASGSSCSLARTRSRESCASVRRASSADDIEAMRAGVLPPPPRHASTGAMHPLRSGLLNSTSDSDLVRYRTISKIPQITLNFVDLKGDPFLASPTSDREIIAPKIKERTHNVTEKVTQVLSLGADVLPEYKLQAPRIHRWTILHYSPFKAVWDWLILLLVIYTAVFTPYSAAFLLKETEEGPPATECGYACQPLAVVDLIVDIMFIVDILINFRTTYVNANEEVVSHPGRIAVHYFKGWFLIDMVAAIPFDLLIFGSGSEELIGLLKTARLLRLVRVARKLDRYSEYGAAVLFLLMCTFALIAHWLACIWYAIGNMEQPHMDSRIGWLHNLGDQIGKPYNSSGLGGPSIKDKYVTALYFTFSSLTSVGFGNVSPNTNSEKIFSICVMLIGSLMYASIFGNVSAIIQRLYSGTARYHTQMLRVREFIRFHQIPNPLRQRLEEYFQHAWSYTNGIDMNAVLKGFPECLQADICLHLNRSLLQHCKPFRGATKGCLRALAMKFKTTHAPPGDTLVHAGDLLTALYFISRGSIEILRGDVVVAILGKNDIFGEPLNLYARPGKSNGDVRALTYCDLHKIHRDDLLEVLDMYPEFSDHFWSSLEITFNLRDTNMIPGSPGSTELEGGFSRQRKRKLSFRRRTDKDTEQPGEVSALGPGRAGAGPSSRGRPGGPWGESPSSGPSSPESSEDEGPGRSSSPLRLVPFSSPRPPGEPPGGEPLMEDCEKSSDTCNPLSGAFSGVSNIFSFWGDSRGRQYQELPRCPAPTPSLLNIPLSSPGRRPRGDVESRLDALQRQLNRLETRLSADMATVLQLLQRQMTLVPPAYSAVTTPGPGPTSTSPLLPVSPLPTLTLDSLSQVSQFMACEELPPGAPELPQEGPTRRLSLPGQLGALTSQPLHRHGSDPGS

Structure (SMILES) | hERG current change (%, negative = inhibition) at 10uM [%]
O=C(CCSCc1ccccc1)Nc1ccc2c(c1)OCCO2 | 11.9
CC(C)(C)c1ccc(-c2cc(-c3ccccc3O)[nH]n2)cc1 | 20.5
Cc1noc(NS(=O)(=O)c2ccc(NC(=O)c3ccc(N(C)C)cc3)cc2)c1C | 12.2
N/C(=N\OC(=O)c1cccc(Cn2cc(C(F)(F)F)ccc2=O)c1)c1ccc(Cl)cc1 | -13.8
Cc1[nH]c2ccccc2c1C(C[N+](=O)[O-])c1cccs1 (stereo not shown) | -14.2
CC(=O)Nc1ccc(NC(=O)C2CCN(C(=O)c3cccs3)CC2)cc1 | 15.9
CCOC(=O)N1CCN(C(=S)NC(=O)c2cncc(Br)c2)CC1 | 6.86
COc1ccc(NC(=O)C2CCCN2C(=O)OCc2ccccc2)c(OC)c1 (stereo not shown) | -7.86
Cc1nn(-c2ccccc2)c(C)c1NC(=O)COc1ccc(F)cc1Cl | -35.8
COc1cccc(Nc2nc(CC(C)=O)ns2)c1 | 21.2
CCOC(=O)c1ccc(-c2ccc(C(=O)Nc3cccnc3)o2)cc1 | 11
CC1=C(n2nnc([N+](=O)[O-])n2)C(c2cccnc2)C(C#N)=C(N)O1 (stereo not shown) | -5.58
Cc1ccc(Nc2c(-c3ccccn3)nc3cccc(C)n23)cc1 | 10.1
CC1C(=O)N(Cc2ccccc2F)c2ccccc2N1C(=O)c1c(F)cccc1F (stereo not shown) | -6.04
Cc1cc(Oc2ccc(=O)n(C)n2)nc(SCC(N)=O)n1 | 8.09
CC(=O)Nc1ccc(NC(=O)c2ccccc2Nc2ccccc2)cc1 | 12.7
Cc1ccc(S(=O)(=O)N(CC(=O)NN=C2CCN(C)CC2)c2ccc(F)cc2)cc1 | 3.99
CCOC(=O)N1CCN(C(=O)Cc2ccsc2)CC1 | 3.68
CCc1nnc(NC(=O)Cc2ccc(OC)cc2)s1 | -4.6
COc1cc(NC(=O)c2ccc(COCC(F)(F)F)cc2)cc(OC)c1OC | 1.25

Structure (SMILES) | hERG current change (%, negative = inhibition) at 10uM [%]
Cc1nn(-c2nnc(C)c(=O)[nH]2)c(C)c1SCC(=O)Nc1ccc(F)cc1 | 17.6
C[C@]12C(=O)N(c3ccc(C(F)(F)F)cc3)C(=O)N1[C@@H]1c3ccccc3OC[C@@H]1[C@H]2c1ccccc1 | 10.1
c1cnc(N2CCN(c3cnccn3)CC2)nc1 | 3.42
Cc1c(Cl)cccc1N(CC(=O)NC(C)c1ccccc1)S(C)(=O)=O (stereo not shown) | -3.41
Cc1nc2nc[nH]n2c(=O)c1CCC(C)C | 4.34
COc1ccccc1NC(=O)CN1C(=O)NC(CC(C)C)C1=O (stereo not shown) | 4.37
CN(C)c1cnn(-c2ccccc2)c(=O)c1Cl | 7.34
CC1CCN(C(=O)CCCOc2ccc(Cl)cc2)CC1 | -27.7
COC(=O)c1ccccc1NC(=S)NC(C)=O | 32.6
CCN(CC)C(=O)c1ccc2c(c1)nnn2C | 12.5
Cn1c(SCc2ccccn2)nnc1-c1ccncc1 | -14.5
Cc1cc(C)c(S(=O)(=O)N(CC(=O)NCc2cccnc2)C2CCCCC2)c(C)c1 | -37.4
CNC(=O)c1cccc(NC(=O)CCCNC(=O)c2ccc(Cl)cc2)c1 | 9.43
CN1/C(=C\C(=S)NC(=O)c2cccc(Br)c2)C(C)(C)c2ccccc21 | -7.85
Cc1ccc(CNC(=O)CCc2cn(C)c3ccccc23)cc1 | 7.06
Cc1ccc(Nc2cc(=O)[nH]c(=O)[nH]2)c(C)c1 | 14.7
CC1(C)NC(=O)N(CN2C(=O)NC(C)(C)C2=O)C1=O | 7.67
CCOC(=O)c1cccc(NC(=O)CSc2nnnn2CC)c1 | -10.2
CCN(CC)CCCn1c2c(c(SCC(=O)Nc3ccc(OC(F)(F)F)cc3)nc1=O)CCC2 | -67.7
C=CCn1c(SCC(=O)Nc2nnc(CC)s2)nnc1-c1ccco1 | -4.33

Structure (SMILES) | hERG current change (%, negative = inhibition) at 10uM [%]
CCC(c1nnnn1Cc1ccc(F)cc1)N(CCCO)Cc1cc2cc3c(cc2[nH]c1=O)OCO3 (stereo not shown) | -17.5
C=CCOc1ccc(/C=C/C(=O)OC(C)C(=O)Nc2ccc(NC(C)=O)cc2)cc1 (stereo not shown) | 4.6
Cc1cccc(Nc2nc(OCC#N)nc(N(C)C)n2)c1 | 13.7
CC(=O)NC1C(=O)Nc2c(C)cc(C)cc21 (stereo not shown) | -4.56
O=C(CN(C(=O)CCC(=O)Nc1nccs1)c1ccc(F)c(Cl)c1)NCC1CCCO1 (stereo not shown) | 15.4
Cc1ccc(-n2nc3c(=O)n(CCCC(=O)NCc4ccco4)nc(C)c3c2C)cc1 | -8.62
COCCCN(C(=S)Nc1cc(Cl)cc(Cl)c1)C(C)c1ccncc1 (stereo not shown) | -70.6
CC1CC(C)CN(c2ncnc3c2cnn3C)C1 (stereo not shown) | -69.8
O=C(Nc1ccccc1)Nc1ccc(C(=O)N2CCOCC2)cc1 | 21.6
Cc1noc(C)c1COc1ccccc1C(=O)NNC(=O)c1ccccc1 | -9.18
Cc1c(NS(=O)(=O)c2ccc(Cl)c(C(=O)OC(C)C(=O)NCc3ccco3)c2)c(=O)n(-c2ccccc2)n1C (stereo not shown) | -77.5
CC1CCCC(C)N1C(=O)Cn1c(=O)sc2ccccc21 (stereo not shown) | 0.375
Cc1cc(NC(=O)Nc2ccc(C)c(C)c2)no1 | 11.3
CCC(C)C(NC(=O)CCCNC(=O)CCC(=O)OC1O[C@H]2OC3(C)CC[C@H]4[C@H](C)CCC(C1C)C24OO3)C(=O)O (stereo partly shown) | 4.12
O=C1CCc2cc(S(=O)(=O)N3CCCC3C(=O)N3CCN(c4ccccc4F)CC3)ccc2N1 (stereo not shown) | -14.5
O=C(Nc1nccs1)C1C2CC3OC(=O)C1C3C2 (stereo not shown) | 12.5
c1ccc(Sc2ccccn2)cc1 | 9.32
c1ccc(-c2ccccc2-c2nc(-c3ccncc3)no2)cc1 | 1.37

Source: article PMC4336329 (PLoS ONE, 2015)
